Legend:
Experiment in all cases: GST pull-down, LC-MS/MS
Mpst_IPI:IPI00604945.2 = target: T1, Mpst_IPI:IPI00604945.2 (mouse, UniProt Q99J99 2-297)
T1 sequence (looked up): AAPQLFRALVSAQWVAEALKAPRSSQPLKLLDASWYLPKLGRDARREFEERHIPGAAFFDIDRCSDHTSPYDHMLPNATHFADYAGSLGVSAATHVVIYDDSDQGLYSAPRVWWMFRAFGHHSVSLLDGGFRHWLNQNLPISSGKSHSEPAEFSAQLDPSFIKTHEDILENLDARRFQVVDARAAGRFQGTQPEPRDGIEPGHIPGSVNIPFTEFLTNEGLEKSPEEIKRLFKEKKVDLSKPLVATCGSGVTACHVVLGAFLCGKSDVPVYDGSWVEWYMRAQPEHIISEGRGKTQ

[1] = target: T2, Slc25a27_IPI:IPI00108998.1 (mouse, UniProt Q9D6D0 1-322)
T2 sequence (looked up): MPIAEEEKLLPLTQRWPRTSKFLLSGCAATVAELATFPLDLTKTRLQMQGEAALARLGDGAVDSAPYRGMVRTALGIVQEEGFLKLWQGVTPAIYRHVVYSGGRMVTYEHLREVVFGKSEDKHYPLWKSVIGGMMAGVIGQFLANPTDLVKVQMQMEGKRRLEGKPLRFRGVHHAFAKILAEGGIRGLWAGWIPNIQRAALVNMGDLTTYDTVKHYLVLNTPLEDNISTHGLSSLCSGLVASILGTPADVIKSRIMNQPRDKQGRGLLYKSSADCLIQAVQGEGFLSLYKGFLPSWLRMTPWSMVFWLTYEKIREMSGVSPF

Suclg2_IPI:IPI00459487.3 = target: T3, Suclg2_IPI:IPI00459487.3 (mouse, UniProt Q9Z2I8 39-433)
T3 sequence (looked up): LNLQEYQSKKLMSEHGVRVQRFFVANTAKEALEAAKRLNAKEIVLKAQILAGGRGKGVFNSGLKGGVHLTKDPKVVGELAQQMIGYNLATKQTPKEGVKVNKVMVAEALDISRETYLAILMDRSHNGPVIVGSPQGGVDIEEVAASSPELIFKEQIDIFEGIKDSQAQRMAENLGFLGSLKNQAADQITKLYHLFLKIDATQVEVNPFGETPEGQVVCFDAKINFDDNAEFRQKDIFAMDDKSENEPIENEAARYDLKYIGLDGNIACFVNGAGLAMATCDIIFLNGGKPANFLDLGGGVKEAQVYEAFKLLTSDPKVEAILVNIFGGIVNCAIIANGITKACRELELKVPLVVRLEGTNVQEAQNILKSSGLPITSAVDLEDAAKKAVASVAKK

[2] = target: Nup210l_IPI:IPI00356451.5 (mouse, UniProt Q9D2F7 33-1881, limits assumed)
Chain of UniProt Q9D2F7 (Q9D2F7 33-1881 limits assumed): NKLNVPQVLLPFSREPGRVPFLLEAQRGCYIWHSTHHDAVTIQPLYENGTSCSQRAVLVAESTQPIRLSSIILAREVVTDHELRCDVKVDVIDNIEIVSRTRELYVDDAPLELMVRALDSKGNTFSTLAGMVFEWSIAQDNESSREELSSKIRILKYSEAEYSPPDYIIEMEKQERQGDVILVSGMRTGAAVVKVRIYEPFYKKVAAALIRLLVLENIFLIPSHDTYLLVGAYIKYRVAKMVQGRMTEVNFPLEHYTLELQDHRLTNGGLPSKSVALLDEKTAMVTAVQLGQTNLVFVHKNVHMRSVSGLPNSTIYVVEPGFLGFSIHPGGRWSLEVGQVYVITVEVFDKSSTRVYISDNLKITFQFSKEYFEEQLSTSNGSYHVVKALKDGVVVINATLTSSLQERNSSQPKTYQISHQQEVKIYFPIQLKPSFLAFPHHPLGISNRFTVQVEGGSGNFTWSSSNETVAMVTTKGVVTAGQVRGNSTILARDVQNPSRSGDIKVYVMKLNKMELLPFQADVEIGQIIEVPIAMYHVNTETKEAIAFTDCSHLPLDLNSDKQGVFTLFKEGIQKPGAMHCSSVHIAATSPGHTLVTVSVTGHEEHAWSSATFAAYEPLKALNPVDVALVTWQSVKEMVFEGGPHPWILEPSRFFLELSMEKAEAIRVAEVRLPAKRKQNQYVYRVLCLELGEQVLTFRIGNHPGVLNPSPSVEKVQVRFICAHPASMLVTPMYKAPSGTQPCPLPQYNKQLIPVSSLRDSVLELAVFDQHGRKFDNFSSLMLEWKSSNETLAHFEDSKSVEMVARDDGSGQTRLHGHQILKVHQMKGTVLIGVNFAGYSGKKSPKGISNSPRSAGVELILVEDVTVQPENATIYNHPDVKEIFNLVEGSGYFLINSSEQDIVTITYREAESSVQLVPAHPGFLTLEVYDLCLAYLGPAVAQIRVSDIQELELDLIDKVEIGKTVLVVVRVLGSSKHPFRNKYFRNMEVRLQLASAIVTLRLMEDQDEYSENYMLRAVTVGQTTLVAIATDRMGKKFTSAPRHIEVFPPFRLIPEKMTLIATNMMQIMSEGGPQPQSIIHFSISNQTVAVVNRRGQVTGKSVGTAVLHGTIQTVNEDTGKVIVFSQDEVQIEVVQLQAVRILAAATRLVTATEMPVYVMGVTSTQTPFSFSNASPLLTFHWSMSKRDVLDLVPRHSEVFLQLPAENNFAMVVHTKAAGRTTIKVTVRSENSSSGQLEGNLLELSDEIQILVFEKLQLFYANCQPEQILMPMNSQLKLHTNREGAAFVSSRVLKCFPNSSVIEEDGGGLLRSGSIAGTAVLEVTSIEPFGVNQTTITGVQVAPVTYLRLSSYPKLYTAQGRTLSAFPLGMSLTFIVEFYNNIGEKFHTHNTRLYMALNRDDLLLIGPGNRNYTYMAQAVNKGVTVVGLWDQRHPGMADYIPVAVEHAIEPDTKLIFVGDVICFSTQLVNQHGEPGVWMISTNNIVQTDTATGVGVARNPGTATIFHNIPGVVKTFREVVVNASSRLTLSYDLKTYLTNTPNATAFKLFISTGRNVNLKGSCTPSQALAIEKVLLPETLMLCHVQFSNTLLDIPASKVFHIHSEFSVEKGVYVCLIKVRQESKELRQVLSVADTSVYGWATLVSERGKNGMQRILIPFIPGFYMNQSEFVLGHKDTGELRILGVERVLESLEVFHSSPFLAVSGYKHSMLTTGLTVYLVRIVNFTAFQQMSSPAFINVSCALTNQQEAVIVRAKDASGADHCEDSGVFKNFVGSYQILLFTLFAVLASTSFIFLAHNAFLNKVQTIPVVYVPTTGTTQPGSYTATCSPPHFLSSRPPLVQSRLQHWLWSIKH
Pnkd_IPI:IPI00187405.4 = target: T4, Pnkd_IPI:IPI00187405.4 (mouse, UniProt Q69ZP3 1-385, limits assumed)
T4 sequence (looked up): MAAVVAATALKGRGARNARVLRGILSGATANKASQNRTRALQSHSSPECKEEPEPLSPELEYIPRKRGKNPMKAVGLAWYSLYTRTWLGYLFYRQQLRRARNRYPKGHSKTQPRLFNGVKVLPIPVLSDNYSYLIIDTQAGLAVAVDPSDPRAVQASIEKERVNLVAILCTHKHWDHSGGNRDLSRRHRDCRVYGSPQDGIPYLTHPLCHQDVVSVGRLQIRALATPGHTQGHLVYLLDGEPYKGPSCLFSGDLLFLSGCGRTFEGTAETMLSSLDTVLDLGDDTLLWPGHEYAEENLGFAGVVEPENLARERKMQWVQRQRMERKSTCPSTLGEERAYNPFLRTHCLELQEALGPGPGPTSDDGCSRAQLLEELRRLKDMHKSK

Pycr2_IPI:IPI00123278.1 = target: T5, Pycr2_IPI:IPI00123278.1 (mouse, UniProt Q922Q4 2-320)
T5 sequence (looked up): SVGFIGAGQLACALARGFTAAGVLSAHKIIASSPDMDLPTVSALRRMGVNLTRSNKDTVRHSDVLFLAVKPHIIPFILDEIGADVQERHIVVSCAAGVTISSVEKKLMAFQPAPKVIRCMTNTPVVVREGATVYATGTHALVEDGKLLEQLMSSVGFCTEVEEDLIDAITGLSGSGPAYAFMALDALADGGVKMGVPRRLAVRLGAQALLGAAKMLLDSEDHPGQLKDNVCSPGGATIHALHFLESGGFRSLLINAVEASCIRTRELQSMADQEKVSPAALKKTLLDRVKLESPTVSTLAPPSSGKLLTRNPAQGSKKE

Measured: binding result

B1: GST alone (other)
chain: not shown
notes: Negative control of the pull-downs; also called control GST
no binding: all assays above
